About 2,200 (0.71%) of roughly 310,000 compounds showed an effect of 50% or more. The effect is printed as a negative number. Some of the results follow.
Target: human ether-à-go-go-related gene (hERG) potassium channel (human, UniProt Q12809)
Test: primary screen, population patch clamp on CHO cells stably expressing hERG

Sequence of human ether-à-go-go-related gene (hERG) potassium channel (Q12809 whole entry, looked up): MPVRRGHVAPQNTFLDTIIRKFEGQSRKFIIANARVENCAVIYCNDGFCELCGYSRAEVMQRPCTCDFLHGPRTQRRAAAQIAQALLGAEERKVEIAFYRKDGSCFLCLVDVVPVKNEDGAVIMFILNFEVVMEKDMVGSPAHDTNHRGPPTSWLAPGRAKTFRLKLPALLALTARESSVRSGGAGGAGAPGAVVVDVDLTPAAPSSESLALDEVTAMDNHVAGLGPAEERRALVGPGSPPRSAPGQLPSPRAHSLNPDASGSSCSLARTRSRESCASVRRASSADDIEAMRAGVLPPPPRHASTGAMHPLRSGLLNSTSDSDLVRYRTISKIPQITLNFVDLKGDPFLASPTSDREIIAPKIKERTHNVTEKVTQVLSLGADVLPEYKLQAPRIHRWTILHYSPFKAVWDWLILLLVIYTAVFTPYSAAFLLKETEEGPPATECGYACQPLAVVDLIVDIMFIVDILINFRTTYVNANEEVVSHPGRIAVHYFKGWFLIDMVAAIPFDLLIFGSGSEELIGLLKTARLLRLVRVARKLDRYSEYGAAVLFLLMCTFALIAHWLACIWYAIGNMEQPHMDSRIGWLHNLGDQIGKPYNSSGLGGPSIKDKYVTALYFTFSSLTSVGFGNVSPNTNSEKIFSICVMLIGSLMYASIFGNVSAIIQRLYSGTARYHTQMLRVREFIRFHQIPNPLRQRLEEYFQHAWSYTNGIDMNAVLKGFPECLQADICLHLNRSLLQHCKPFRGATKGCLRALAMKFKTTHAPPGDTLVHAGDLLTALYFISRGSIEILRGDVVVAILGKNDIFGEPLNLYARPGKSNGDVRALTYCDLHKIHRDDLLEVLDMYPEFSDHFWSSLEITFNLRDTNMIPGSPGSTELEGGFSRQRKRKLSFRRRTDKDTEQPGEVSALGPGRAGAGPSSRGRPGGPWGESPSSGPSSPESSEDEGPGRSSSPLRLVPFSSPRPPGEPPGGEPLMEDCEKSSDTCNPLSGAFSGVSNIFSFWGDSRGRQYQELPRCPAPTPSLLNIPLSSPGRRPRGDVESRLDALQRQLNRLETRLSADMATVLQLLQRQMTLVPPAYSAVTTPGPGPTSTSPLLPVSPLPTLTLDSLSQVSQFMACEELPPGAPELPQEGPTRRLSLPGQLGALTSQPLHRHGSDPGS

Row | SMILES | hERG current change (%, negative = inhibition) at 1uM
1 | Cc1cc(NC(=O)Cc2ccccc2)ccc1NC(=O)c1cccs1 | 5.61%
2 | O=C(NC(=S)Nc1ccc(CN2CCOCC2)cc1)c1ccc(-c2ccc(Br)cc2)o1 | 16.1%
3 | Cn1cc(-c2ccno2)c(C(=O)O)n1 | 13.3%
4 | O=c1n(Cc2ccccc2)c2cc(Cl)cnc2n1Cc1ccccc1 | 3.08%
5 | CC(Oc1ccc(C(=O)c2ccccc2)cc1)C(=O)N1CCOCC1 (stereo not drawn) | -5.31%
6 | CCOc1ncccc1C(=O)NCC1COc2ccccc2O1 (stereo not drawn) | 5.36%
7 | COc1ccc(-n2nc(C(=O)O)c3ccccc3c2=O)cc1 | 2.83%
8 | FC(F)Oc1ccc(NC(=S)NNc2ccnc3cc(Cl)ccc23)cc1 | 15.6%
9 | COC(=O)C1=C(C)N(C(C)C)C(=O)C1(NC(=O)C1CCCCC1)C(F)(F)F (stereo not drawn) | 1.89%
10 | Cc1ccc(NC(=S)/C(=C(\[O-])c2ccc(Cl)s2)[n+]2cccc(CO)c2)cc1C | 4.6%
11 | COC(=O)c1sccc1NC(=S)N1CC(C)CC(C)C1 (stereo not drawn) | 13.4%
12 | COCCCn1c(C)cc(C(=O)COC(=O)CCc2nc3ccccc3c(=O)[nH]2)c1C | 13%
13 | Cc1nn(CC(=O)NCCCN2CCCCC2C)c(=O)c2cccn12 (stereo not drawn) | 19.2%
14 | O=C(Nc1cccc([N+](=O)[O-])c1)c1ccc2snnc2c1 | -0.532%
15 | Cc1ccc2nc(-c3ccccc3)cc(C(=O)N3CCN(S(=O)(=O)c4c(C)noc4C)CC3)c2c1 | -0.0323%
16 | CCN(/C=N/S(=O)(=O)c1ccc(Cl)cc1)CC | -3.63%
17 | COc1ccc(OCC(O)CNC(=O)Nc2ccc(Cl)cc2)cc1 (stereo not drawn) | 8.21%
18 | CCN1CCN(C(=O)CNC(=O)c2nn(-c3ccc(OC)cc3)c(=O)c3ccccc23)CC1 | 16.6%
19 | CCOc1cc2[nH]c(=O)n(Cc3ccc(C(=O)NCCOC)cc3)c(=O)c2cc1OCC | 4.96%

Row | SMILES | hERG current change (%, negative = inhibition) at 1uM
20 | Cc1ccc(C(=O)NN2C(=O)CSC2=S)cc1 | 3.57%
21 | Clc1cccc(C2CCN(Cc3nc(CC4CC4)no3)C2)c1 (stereo not drawn) | -2.02%
22 | CCN(C(=O)CSc1nnc(SC)s1)c1c(N)n(Cc2ccccc2)c(=O)[nH]c1=O | 13.8%
23 | CCOC(=O)C1=C(C)N(c2nonc2NC(C)=O)C(N)=C(C#N)C1c1ccccc1F (stereo not drawn) | 5.92%
24 | Cc1noc(C)c1CSc1nc2sc3c(c2c(=O)n1C)CCCC3 | 9.65%
25 | O=C1CCCC2=C1C(c1ccncc1)Nc1ccccc1N2 (stereo not drawn) | 10.7%
26 | Cc1cc(C)c2c(-n3cccc3)c(NC(=O)OCc3ccccc3)sc2n1 | 0.703%
27 | CCc1cccc(C)c1NC(=O)COC(=O)C(NS(=O)(=O)c1ccc(Cl)cc1)C(C)O (stereo not drawn) | 7.01%
28 | Cc1csc(NC(=O)c2ccncc2)n1 | 11.7%
29 | O=C(CCN1C(=O)C2CC=CCC2C1=O)Nc1cccc(Cl)c1 (stereo not drawn) | 6.95%
30 | CCCCNC(=O)C1c2ccccc2C(=O)N(c2ccc(OC)cc2)C1c1ccc(OC)cc1 (stereo not drawn) | 14.2%
31 | CC(=O)c1ccc(NC(=O)Cn2c(=O)oc3ccccc32)cc1 | 18.5%
32 | COC(=O)c1ccc(NC(=O)c2cc3c(CO)cnc(C)c3oc2=Nc2cccc(C(N)=O)c2)cc1 | 14.5%
33 | O=C(CCC(=O)NNC(=O)Nc1cccc(Cl)c1)NCc1ccccc1 | 10.1%
34 | FC(F)(F)c1ccc(-c2n[nH]c(=S)o2)nc1 | 9.8%
35 | COc1ccc(CN(C)C(=O)c2ccc(COc3ccccc3)cc2)c(OC)c1 | 11.3%
36 | Cc1cccc(-c2nnc(-c3ccccc3)o2)c1 | 10.1%
37 | CC(=O)N1CCN(C(=O)CCNS(=O)(=O)c2ccc(Br)cc2)CC1 | 11.5%
38 | COc1cccc(N=c2oc3c(C)ncc(CO)c3cc2C(N)=O)c1 | 2.52%

Row | SMILES | hERG current change (%, negative = inhibition) at 1uM
39 | O=C(NC1CCCCC1)C(c1c(F)cccc1Cl)N(C(=O)c1csnn1)C1CC1 (stereo not drawn) | 18.4%
40 | CC(NC(=O)CN1CCN(Cc2cccc(F)c2)CC1)c1ccccc1 (stereo not drawn) | 14.9%
41 | COc1ccc(OCC(=O)N(Cc2sccc2C)C2CCS(=O)(=O)C2)cc1 (stereo not drawn) | -11.8%
42 | Cc1nc2nc(-c3ccco3)[nH]n2c(=O)c1C | 2.55%
43 | O=C(CCN1C(=O)/C(=C/c2ccco2)SC1=S)Nc1ccc(O)cc1C(=O)O | 4.86%
44 | Cc1cc(C)c(-c2csc(NC(=O)c3n[nH]c(=O)c4ccccc34)n2)c(C)c1 | -0.562%
45 | Cc1cc(C)nc(SCc2n[nH]c(=S)n2C)n1 | 7.9%
46 | CCC(C)NC(=O)COc1ccc(Br)c(C)c1 (stereo not drawn) | 10.6%
47 | CC1Sc2ccccc2N(CC(=O)N(C(C)C)C(C)C)C1=O (stereo not drawn) | 10.5%
48 | CCOC(=O)C1CCN(c2nc3ccccc3nc2C(C#N)C(=O)OCCOC)CC1 (stereo not drawn) | 11%
49 | Nc1cccc(S(=O)(=O)Nc2ccccc2)c1 | 15.5%
50 | CC(O)(CS(=O)(=O)Cc1ccccc1Cl)C(=O)Nc1cccc(C(F)(F)F)c1 (stereo not drawn) | -10.7%
51 | Clc1cccc(CN2CCSCC2)c1Cl | 13.4%
52 | Cc1ccc(/C=C/C(=O)N2CCN(c3cccc(C(F)(F)F)c3)CC2)cc1 | 3.99%
53 | COc1ccc2cc(CCNC(=O)CC(C)(C)C)c(=O)[nH]c2c1 | 1.62%
54 | Cn1c(NCc2ccco2)nc2c1c(=O)n(Cc1ccc(Cl)c(Cl)c1)c(=O)n2C | -5.94%
55 | Cc1csc(NC(=O)C2CCCO2)n1 (stereo not drawn) | -3.56%
56 | CCOC(=O)c1sc(C)c2c(=O)n(CCc3ccccc3)nnc12 | 13.4%
57 | Cc1c(Cc2ccccc2)c(=O)oc2c(C)c(OCC(=O)NCc3ccccn3)ccc12 | 14.7%

From publication PMC4336329 (PLoS ONE, 2015)
